# According to PubChem BioAssay AID485294 (National Center for Advancing Translational Sciences (NCATS), 2010):
# Among all 370,000 compounds or so, about 150 (0.041%) were called active. The shares of active, inactive and inconclusive entries below differ from those in the screen. Calls follow the shape of the dose curve; as a rule, active = well fitted inhibition curve with a large enough effect; inconclusive = small, poorly fitted or top-dose-only effect; inactive = flat fitted curve, though single readings scatter. Potencies of inconclusive entries are left out as doubtful fits.
# Biological target: Beta-lactamase (Escherichia coli (strain K12)) (UniProt P00811)
# Sequence of UniProt P00811 (P00811 whole entry, looked up): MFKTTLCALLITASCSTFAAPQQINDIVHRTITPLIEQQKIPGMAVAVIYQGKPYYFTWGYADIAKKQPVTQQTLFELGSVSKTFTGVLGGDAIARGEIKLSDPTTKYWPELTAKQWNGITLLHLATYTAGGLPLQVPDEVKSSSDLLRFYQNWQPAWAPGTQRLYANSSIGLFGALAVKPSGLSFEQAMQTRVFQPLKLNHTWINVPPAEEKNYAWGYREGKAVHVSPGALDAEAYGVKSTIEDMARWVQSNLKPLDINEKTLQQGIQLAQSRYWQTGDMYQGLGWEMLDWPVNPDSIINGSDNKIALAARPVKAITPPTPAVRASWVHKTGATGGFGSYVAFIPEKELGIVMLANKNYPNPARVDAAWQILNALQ
# Assay: qHTS Inhibitors of AmpC Beta-Lactamase (assay with detergent); also: nearly all actives have a fitted effect of over 25% in size
# Settings: AmpC hydrolysis of nitrocefin, absorbance 480 nm, 0.01% Triton; series mostly up to 114 µM
# In short: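 AmpC (5.3 nM in the dispensed reagent) in 20 mM phosphate pH 7.0 with 0.01% (detergent screen) or 0.0001% Triton X-100 was preincubated with compounds for 15 min at room temperature. Nitrocefin was then added from an 800 uM solution, and hydrolysis was followed at 480 nm.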
# Potency is read from the fitted curve at half-maximal effect; tags tell the direction and shape of the fitted curve.
row,SMILES,Potency
1,CCCCNC(=O)c1onc(CS(=O)(=O)c2ccccn2)c1C(=O)NCCCC,"inconclusive [inhibitor, single point]"
2,C=CCNC(=O)CN(CCc1ccccc1)S(=O)(=O)c1ccccc1,inactive
3,CCCN1CCN(CCCNC(=O)c2ccc3c(c2)sc2nc(-c4ccc(OC)cc4)cn23)CC1,inactive
4,Cc1noc(C)c1S(=O)(=O)NC1CCN(Cc2ccccc2)CC1,"inconclusive [inhibitor, full curve, poor fit]"
5,Cc1ccc(N(CC(=O)O)S(=O)(=O)c2cccc3nonc23)cc1,"inconclusive [inhibitor, partial curve, poor fit]"
6,Cc1cc(C)n(CCNC(=O)C2CCC(=O)N(Cc3ccc(Cl)cc3)C2)n1 (stereo not drawn),"inconclusive [inhibitor, full curve]"
7,CC(C(=O)Nc1nncs1)N1C(=O)C2C3C=CC(C3)C2C1=O (stereo not drawn),"inconclusive [inhibitor, partial curve]"
8,COc1ccc(-c2csc(N(CCCN(C)C)C(=O)c3ccc(C)cc3)n2)cc1,"inconclusive [inhibitor, full curve, poor fit]"
9,c1cnc2ccc(C(c3nnnn3C3CCCCC3)N3CCCCC3)cc2c1 (stereo not drawn),"inconclusive [inhibitor, full curve, poor fit]"
10,C=C(C)Cn1c(C2CC(=O)N(c3ccccc3F)C2)nc2ccccc21 (stereo not drawn),"inconclusive [inhibitor, full curve, poor fit]"
11,O=C(COC(=O)c1c(Cl)ccc(Cl)c1Cl)NC(=O)NCc1ccccc1,"inconclusive [inhibitor, full curve]"
12,Cc1c(NC(=S)NC(=O)C2CCCCC2)c(=O)n(-c2ccccc2)n1C,"inconclusive [inhibitor, full curve]"
13,COc1ccc(-n2nc3c(N4CCC(C(=O)NCc5cccc(F)c5)CC4)nnc(C)c3c2C)cc1,inactive
14,CC(=O)c1cccc(NC(=O)CN2C(=O)c3ccccc3Sc3ncccc32)c1,inactive
15,O=[N+]([O-])c1ccccc1/C=C/CN1CCCCC1CO (stereo not drawn),"inconclusive [inhibitor, full curve, poor fit]"
16,Cc1ccc(C(=O)c2ccc(O)cc2)cc1C,"inconclusive [inhibitor, single point]"
17,O=C(c1cnn(-c2cccc(F)c2)c1-n1cccc1)N1CCN(c2ccccc2F)CC1,inactive
18,CC[C@@]12C(=O)N(c3cccc(F)c3)C(=O)N1[C@H](c1cccc(C)c1)[C@@H]1C(=O)N(Cc3ccccc3)C(=O)[C@@H]12,"inconclusive [inhibitor, full curve]"
19,O=C(Oc1cccc2c(OC(=O)N3CCCC3)cccc12)N1CCCC1,"inconclusive [inhibitor, full curve, poor fit]"
20,CCOC(=O)N1CCN(C(=O)C2CCN(C(=O)c3cc4sccc4n3CC)CC2)CC1,"inconclusive [inhibitor, partial curve]"
21,COc1ccc(-c2nc(C#N)c(NCc3ccco3)o2)cc1,inactive
22,CCC(NC(C)C)C(O)c1ccc(O)c2[nH]c(=O)ccc12 (stereo not drawn),inactive

row,SMILES,Potency
1,C[C@H](NC(=O)c1ccco1)C(=O)Nc1ccc(S(=O)(=O)N2CCCC2)cc1,"inconclusive [inhibitor, full curve, poor fit]"
2,CC(=O)N1CCN(C(=S)NCCc2ccccc2)CC1,"inconclusive [inhibitor, partial curve, poor fit]"
3,CC(OC(=O)C12CCC(=O)N1c1ccccc1S2)C(=O)Nc1cccc(Cl)c1 (stereo not drawn),"inconclusive [inhibitor, full curve, poor fit]"
4,CC(/C=C/C=C/c1ccccc1)=N\NC(=O)c1cccnc1,"inconclusive [inhibitor, single point]"
5,O=C(c1ccccc1-c1nc2ccccc2[nH]1)N1CCCCC1,"inconclusive [inhibitor, full curve, poor fit]"
6,Cc1ccc(S(=O)(=O)Oc2ccc(C3C4=C(CCCC4=O)N(CCC(=O)O)C4=C3C(=O)CCC4)cc2Cl)cc1,"inconclusive [inhibitor, partial curve, poor fit]"
7,CC(C)(C)c1nn2cnnc2n(/N=C/c2cccc3ccccc23)c1=O,"inconclusive [inhibitor, partial curve]"
8,O=C(NCCOc1ccccc1)C1CCC(=O)N(C2CCCCCC2)C1 (stereo not drawn),"inconclusive [inhibitor, single point]"
9,CC(C)NC(=O)CCCOc1ccc(Cl)cc1Cl,"inconclusive [inhibitor, full curve, poor fit]"
10,CCOc1ccccc1-c1nnc(CS(=O)(=O)c2ccccc2)o1,inactive
11,C=C(C(=O)c1ccccc1)C(C(=C)C(=O)c1ccccc1)c1ccc(OC)cc1,inactive
12,Cc1cccc(S(=O)(=O)Nc2cccc(-c3ccc(N4CCCCC4)nn3)c2)c1,inactive
13,CC(C)c1nc(SCC(=O)Nc2cccc(S(N)(=O)=O)c2)n[nH]1,"inconclusive [inhibitor, partial curve, poor fit]"
14,O=C(NCCc1c[nH]c2ccccc12)c1ccc(S(=O)(=O)NCc2ccco2)cc1,inactive
15,CCCCCCCC(=O)OCC(O)CO (stereo not drawn),"inconclusive [inhibitor, single point]"
16,CCOC(=O)c1c(NC(=O)CSc2nnc3c(n2)[nH]c2ccc(F)cc23)sc(C(C)=O)c1C,"inconclusive [inhibitor, partial curve]"
17,COc1ccc(OC)c(C(=O)CC2OC(=O)c3ccccc32)c1 (stereo not drawn),"inconclusive [inhibitor, full curve, poor fit]"
18,COc1ccc(/C=N/NC(=O)c2cccc([N+](=O)[O-])c2)cc1OC(=O)c1ccccc1,inactive
19,Fc1ccc(Br)cc1C1C=C(c2ccc(Br)s2)Nc2ncnn21 (stereo not drawn),inactive
20,COc1ccc(C)cc1-n1nnnc1SCc1nc2ccccc2s1,inactive
21,COc1ccc(NC(=O)COc2cc(C)cc(C)c2)cc1S(=O)(=O)N1CCCCC1,"inconclusive [inhibitor, partial curve]"
